The whole screen tested about 310,000 compounds, of which about 14,000 (4.5%) showed an effect of 50% or more. Effects have a minus sign here. The list shows a part of the results.
Target: human ether-à-go-go-related gene (hERG) potassium channel (human, UniProt Q12809)
Assay: primary screen, population patch clamp on CHO cells stably expressing hERG
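Further: peak tail current of the secondary pulse compared with the same well before compound.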

Chain of human ether-à-go-go-related gene (hERG) potassium channel (Q12809 whole entry, looked up): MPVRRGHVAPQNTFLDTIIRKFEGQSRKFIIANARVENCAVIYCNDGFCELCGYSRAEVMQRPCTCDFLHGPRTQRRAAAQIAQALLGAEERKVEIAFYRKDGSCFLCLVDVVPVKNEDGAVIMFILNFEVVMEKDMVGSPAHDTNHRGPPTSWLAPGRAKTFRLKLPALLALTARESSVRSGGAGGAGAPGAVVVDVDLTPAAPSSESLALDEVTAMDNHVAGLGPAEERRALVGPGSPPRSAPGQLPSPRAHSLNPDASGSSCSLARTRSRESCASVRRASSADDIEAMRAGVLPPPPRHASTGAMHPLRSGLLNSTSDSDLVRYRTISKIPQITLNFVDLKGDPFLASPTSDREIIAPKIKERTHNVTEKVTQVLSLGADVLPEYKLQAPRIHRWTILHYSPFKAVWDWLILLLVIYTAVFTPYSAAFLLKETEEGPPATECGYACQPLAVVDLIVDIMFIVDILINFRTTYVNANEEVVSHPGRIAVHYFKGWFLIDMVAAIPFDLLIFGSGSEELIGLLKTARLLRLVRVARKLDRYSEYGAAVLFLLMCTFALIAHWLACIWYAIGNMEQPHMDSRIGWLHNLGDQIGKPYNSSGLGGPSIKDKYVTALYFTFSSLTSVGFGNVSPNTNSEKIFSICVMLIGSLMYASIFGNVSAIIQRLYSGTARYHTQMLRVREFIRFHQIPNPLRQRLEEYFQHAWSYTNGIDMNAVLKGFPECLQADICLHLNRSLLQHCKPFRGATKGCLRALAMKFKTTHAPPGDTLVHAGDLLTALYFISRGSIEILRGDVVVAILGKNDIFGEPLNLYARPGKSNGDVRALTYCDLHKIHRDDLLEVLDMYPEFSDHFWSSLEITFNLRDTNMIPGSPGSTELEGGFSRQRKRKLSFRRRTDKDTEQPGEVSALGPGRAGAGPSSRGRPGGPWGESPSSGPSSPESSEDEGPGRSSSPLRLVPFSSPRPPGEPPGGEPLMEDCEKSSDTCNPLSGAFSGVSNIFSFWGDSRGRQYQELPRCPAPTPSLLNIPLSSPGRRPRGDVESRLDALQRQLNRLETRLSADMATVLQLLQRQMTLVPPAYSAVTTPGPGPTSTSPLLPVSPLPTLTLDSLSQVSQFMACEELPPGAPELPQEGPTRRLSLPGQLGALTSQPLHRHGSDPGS

Compound	hERG current change (%, negative = inhibition) at 10uM [%]
O=C(NCc1ccc(Cl)cc1)C1C2C=CC3(CN(Cc4cccnc4)C(=O)C13)O2 (stereo not shown)	-7.1
CCCc1cc(C(=O)Nc2ccc(CC)cc2)no1	0.086
COC(=O)C(O)(CC(=O)Nc1ccc(OC(F)(F)F)cc1)C(F)(F)F (stereo not shown)	13.1
CC(=O)c1cccc(OCC(=O)Nc2cccc(C(=O)Nc3c(C)n(C)n(-c4ccccc4)c3=O)c2)c1	-7.78
COC(=O)/C=C/c1ccsc1NC(C)=O	13.6
Cc1ccsc1C(=O)NNC(=O)c1cccc(S(=O)(=O)N2CCCC2)c1	4.72
O=[N+]([O-])c1cc(S(=O)(=O)N2CCCC2)ccc1N/N=C/c1ccccn1	39.8
O=C(NC1CCCCCC1)c1ccc(S(=O)(=O)NCc2ccco2)cc1	2.7
FC(F)Oc1ccc(/C=N/c2c(-c3ccc(OC(F)F)cc3)nc3n2CCS3)cc1	30
O=S(=O)(c1ccc(SCCO)nc1)N1CCCC1	7.44
COC(=O)[C@@]1(Cc2ccccc2)[C@@H]2C(=CC(=O)[C@H]2CC(=O)C(=O)N(C)C)CN1C(=O)c1ccccc1	-0.867
CN(C)S(=O)(=O)c1cccc(NC(=O)COC(=O)CCc2nc3ccccc3s2)c1	-16.7
COc1ccc(Nc2nc(-c3cccs3)nc3ccccc23)cc1	6.04
CCCc1cc2c(=O)c(-c3ccc4c(c3)OCCO4)coc2cc1OC(=O)c1ccco1	-0.664
CC1CC(=O)N(CC(=O)Nc2ccc3c(c2)OCCO3)c2ccccc2S1 (stereo not shown)	-17.1
CCNC(=S)Nc1sc2c(c1C#N)CCC(C)C2 (stereo not shown)	17.8
COc1ccc(OC)c(/C=N/NC(=O)c2cc3c(OC)c(OC)ccc3[nH]2)c1	1.91
O=C(NC1CCCC1)c1cc(-c2ccccc2O)on1	12.2
COc1ccccc1-c1nnc2n1N=C(C)CS2	0.183
CCN1C(=O)c2ccccc2S(=O)(=O)c2ccc(C(=O)NCc3cccnc3)cc21	-8.75
COCCNC(=O)C(NC(=O)C1CCCCC1)C12CC3CC(CC(C3)C1)C2 (stereo not shown)	-8.46
CC(=O)O[C@@]12CO[C@@H]1C[C@H](O)[C@@]1(C)C(=O)[C@H](O)C3=C(C)[C@@H](O)C[C@@](O)([C@@H](OC(=O)c4ccccc4)C12)C3(C)C (stereo partly shown)	-4.87

Compound	hERG current change (%, negative = inhibition) at 10uM [%]
CC(C)C[C@H](NC(=O)OC(C)(C)C)c1nnc(SCc2cccc(F)c2)o1	-21.9
Cc1cc(=O)[nH]c(Nc2cccc(Cl)c2C)n1	6.46
CCn1c(CN2CCN(C(=O)c3ccco3)CC2)nc2c1c(=O)n(C)c(=O)n2C	-16.4
O=C(Nc1ccccn1)c1ccc(S(=O)(=O)N2CCCCCC2)cc1	-7.4
Cc1cc2cc(C(c3nnnn3Cc3ccco3)N3CCc4ccccc4C3)c(=O)[nH]c2cc1C (stereo not shown)	1.81
COc1ccc(N2CCN(C(=O)COC(=O)c3oc4ccc(OC)cc4c3C)CC2)cc1	-13.5
CC(C)(C)NC(=O)NC(=O)COC(=O)CCC1CCCCC1	13.1
CCCC(C)NCC(=O)Nc1ccccc1-c1ccccc1.O=C(O)C(=O)O (stereo not shown)	-21.5
O=C(Nc1cccnc1)c1ccccc1-c1ccccc1	19.7
O=C(NCc1ccc(Cl)cc1)c1cnn2ccccc12	-9.93
O=C(Nc1ccc2c(c1)OCCO2)c1ccc(S(=O)(=O)N2CCCCC2)cc1	4.38
CCOc1ccc(NS(=O)(=O)c2ccc3c(c2)N(C(C)=O)CCS3)cc1	1.24
COCCCn1c(C(=O)NCCN2CCOCC2)cc2c(=O)n3cccc(C)c3nc21	-9.21
O=C(Nc1nnc(-c2ccccc2)s1)c1ccc(F)cc1	12.8
Cc1c(C(=O)Nc2ccccc2)sc2nc3n(c(=O)c12)CCCCC3	7.75
NC(=O)NOCc1ccc(Cl)cc1Cl	6.25
CCC(CC)c1nnc(NC(=O)Cc2cccs2)s1	-0.367
Cc1ccc(NC(=S)NC2CCSc3ccccc32)cc1C (stereo not shown)	8.04
O=C(CN(Cc1ccc(F)cc1)C(=O)CCC(=O)Nc1nccs1)NCc1ccc(F)cc1	-50.5
CCOC(=O)C1CCN(S(=O)(=O)c2cn(C)cn2)CC1	18.7
O=[N+]([O-])c1cc([N+](=O)[O-])c(Oc2c(F)cc(F)cc2F)cc1NN1CCCCC1	6.2
Cc1ccc(C(c2nnnn2Cc2ccccc2)N2CCN(Cc3ccccc3)CC2)cc1 (stereo not shown)	-79

Compound	hERG current change (%, negative = inhibition) at 10uM [%]
Cn1cc(Cl)c(-c2n[nH]c(=S)n2-c2ccccc2)n1	21.1
COc1cc(/C=C/C(=O)c2ccc(O)cc2)ccc1OCC#N	-32.6
O=C(NC1(C(=O)NC2CCCCC2)CCCCC1)c1ccccn1	2.56
Cc1ncc(CSc2nnnn2-c2ccccc2)c(N)n1	1.69
CCOC(=O)c1cc(OC(=O)c2ccccc2Br)n(-c2ccccc2)n1	-19.4
CN(C)c1nc(NCc2ccccc2)nc(SCC(=O)Nc2ccccc2)n1	9.98
CC1=Nc2cc(C(=O)NCCCOC(C)C)ccc2Sc2ccc(C)cc21	-4.97
Cc1c(C(=O)Nc2cc(F)cc(F)c2)cnn1-c1ccccc1	8.28
O=C(Nc1nc2ccccc2s1)c1ccc(Cl)s1	1.46
Cc1nc(SCC(=O)Nc2ccc3c(c2)OCCO3)nc(C)c1C	22
CCC(CC)N=C1NS(=O)(=O)c2cc([N+](=O)[O-])ccc21	2.05
COc1cccc(Nc2ccc(C(=O)O)cc2[N+](=O)[O-])c1	18.2
CCOC(=O)N1CCN(CC(=O)c2ccc(O)cc2O)CC1	11.9
COc1cccc(CN2CCN(C(=O)c3ccc(-c4ccccc4)cc3)CC2)c1	-38.3
CCOC(=O)Cn1cc(C(=O)C(C)(C)C)c2ccccc21	4.24
COc1ccccc1N1C(=O)CC(N(O)c2ccccc2)C1=O (stereo not shown)	23.6
O=C(NCC(=O)N1CCCCC1)c1ccc(Br)o1	10.2
Cc1n[nH]c(C)c1S(=O)(=O)N1CCCC(C(=O)NCc2cccs2)C1 (stereo not shown)	-4.66
COc1cccc(C(=O)COc2ccccc2-c2ccccc2)c1	2.6
O=C1Nc2cc(C(=O)NCCCN3CCCC3)ccc2S/C1=C/c1ccccc1F	-69.5
c1cc(-n2cnnn2)ccc1NC1=NCCC1	9.28
COc1ccc(NC(=O)Cn2nc3n(c2=S)CCC3)cc1	9.8

Compound	hERG current change (%, negative = inhibition) at 10uM [%]
COc1ccc(NC(=O)C2CCCN(c3c4c(nc5ncnn35)CCC4)C2)cc1OC (stereo not shown)	-11.7
Nc1c(-c2ccc(Cl)cc2)cnc2ncnn12	-8.92
Cc1cc(C)cc(NC(=O)c2cc3c(=O)n4ccccc4nc3s2)c1	-4.98
COc1cccc(-c2csc(N3CCN(C(=S)Nc4cccc(Cl)c4)CC3)n2)c1	14.6
COc1ccc(CC(=O)NNS(=O)(=O)c2ccccc2)cc1OC	29.9
Cc1cccc(-c2cc(C(=O)Nc3c(C)n(C)n(-c4ccccc4)c3=O)c3ccccc3n2)c1	-21.9
Cc1c(NC(=O)c2coc(=O)c(Br)c2)c(=O)n(-c2ccccc2)n1C	-1.63
O=C(O)c1ccc(Sc2nnc3ccccn23)c([N+](=O)[O-])c1	34.1
O=C(Cc1ccc(Br)cc1)N(Cc1ccccc1)c1ccccn1	-40.3
COc1ccccc1OCCNC(=O)c1ccc(C)o1	1.12
C(=Nc1ccc(Nc2ccccc2)cc1)c1ccc2ccccc2c1	13.2
COc1ccc(CCNC(=O)c2oc3ccc(OC)cc3c2C)cc1	6.73
COc1ccc(CCN(C)C/C=C/c2ccccc2[N+](=O)[O-])cc1OC	-70.8
CCCCN1C(=O)/C(=C2\SC(N3CCOCC3)=NC2=O)c2ccccc21	10.5
CCc1ccc(C(=O)Nc2ccc3c(c2)n(C)c(=O)n3C)cc1	-48.4
CCOC(=O)Cc1csc(SCC(=O)N2CCN(c3ccc(OC)cc3)CC2)n1	-27.7
COc1ccc(-n2c(C)n[nH]c2=O)cc1	9.11
COc1ccccc1-n1c(C)nc(=O)c(-c2ccccc2)c1C	16.8
Cc1ccc(C)c(C(=O)NC2CC(C)(C)NC(C)(C)C2)c1	14.4
CC(C)[C@H](NS(=O)(=O)c1cccc(Cl)c1)C(=O)OCC(=O)N1CCN(c2ccccc2)CC1	-26.7
CCOC(=O)c1sc(NC(=O)CSC(=S)N2CCN(C)CC2)nc1C	-39.8
COc1ccc(-c2ccc(-c3noc(-c4ccccc4C)n3)c(OC)n2)cc1	6.35

From paper PMC4336329 (PLoS ONE, 2015)
